# Measurements published in publication PMC6919601, “Identification of Plasmodium dipeptidyl aminopeptidase allosteric inhibitors by high throughput screening” (PLoS ONE, 2019).
# Several values for one entry are separate records, joined by “and”; a condition that tells them apart may be missing. Identical values can stand only once. Screen size: about 110,000 compounds; about 230 (0.21%) showed an effect of 50% or more. Some of the results follow.
# Target: DPAP1 (Plasmodium falciparum, UniProt Q8IIJ9)
# Sequence (Q8IIJ9 whole entry, looked up): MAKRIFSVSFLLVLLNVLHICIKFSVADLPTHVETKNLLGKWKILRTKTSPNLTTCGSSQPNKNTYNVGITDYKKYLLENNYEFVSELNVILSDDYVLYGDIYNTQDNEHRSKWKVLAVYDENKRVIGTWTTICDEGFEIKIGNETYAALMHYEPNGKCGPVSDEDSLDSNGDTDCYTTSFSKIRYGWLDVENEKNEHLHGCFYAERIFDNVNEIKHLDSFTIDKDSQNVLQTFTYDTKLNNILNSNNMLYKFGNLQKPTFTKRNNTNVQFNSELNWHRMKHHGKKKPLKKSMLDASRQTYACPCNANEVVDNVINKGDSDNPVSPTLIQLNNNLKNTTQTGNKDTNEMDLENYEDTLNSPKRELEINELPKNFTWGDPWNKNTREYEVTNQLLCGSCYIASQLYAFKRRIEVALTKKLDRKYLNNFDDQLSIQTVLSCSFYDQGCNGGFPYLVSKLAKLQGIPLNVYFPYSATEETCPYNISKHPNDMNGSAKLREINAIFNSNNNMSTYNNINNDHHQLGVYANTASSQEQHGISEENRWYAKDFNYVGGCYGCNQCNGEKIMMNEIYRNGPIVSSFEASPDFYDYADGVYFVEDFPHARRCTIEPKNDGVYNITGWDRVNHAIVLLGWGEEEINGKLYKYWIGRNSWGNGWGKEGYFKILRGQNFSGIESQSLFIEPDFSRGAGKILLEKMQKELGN
# Assay: primary screen, percent inhibition; read by cleavage of a fluorogenic dipeptide substrate; higher = more effect of the substance
# Set-up: species or system P. falciparum D10 trophozoite lysates; single well
# 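Further: 30 min substrate incubation versus DMSO and 10 µM JCP410 controls.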
row,SMILES,% Inhibition @ 10 uM
1,O=C(CSc1[nH]c(-c2ccccc2)nc1-c1ccccc1)NCc1ccco1,0.163%
2,CCOc1ccc(N2C(=O)CC(NCCc3ccc(F)cc3)C2=O)cc1 (stereo not drawn),2.54%
3,CCOC(=O)c1nnn(-c2nonc2-n2cccc2)c1CS(=O)(=O)Cc1ccccc1,-0.92%
4,Cc1ccc(CNC(=O)C2CCN(S(C)(=O)=O)CC2)cc1,3.66%
5,CSc1ccccc1NC(=O)c1c(F)cccc1F,4.07%
6,COc1ccccc1OCCCN1CCCC1,2.41%
7,COc1ccc2c(CNC3CCC(C)CC3)c(C(=O)O)n(Cc3ccc(C)cc3)c2c1 (stereo not drawn),5.68%
8,O=C(CSc1nccn1CCc1ccccc1)NCCOc1ccc(Cl)cc1,-1.24%
9,Cc1c2cnn(CC(=O)NCc3ccc4c(c3)OCO4)c(=O)c2c(C)n1Cc1ccccc1F,-2.17%
10,O=C1C2C3C=CC(O3)C2C(=O)N1c1ccccc1Br (stereo not drawn),-6.08%
11,O=c1c(F)cn(C2CCCO2)c(=O)n1CCCCCCO (stereo not drawn),2.01%
12,Cc1cc(NC(=O)CSc2nnc(Cc3cccn3C)n2-c2ccc(Cl)cc2)no1,-3.1%
13,COc1ccc(CNC(=O)c2nc3ncccn3n2)cc1,1.72%
14,Oc1c2nc3ccccc3c-2ncn1CCCN1CCN(C2CCCCC2)CC1,3.24%
15,Clc1ccc(CCNc2ncnc3c2nc2n3CCCCC2)cc1,-1.6%
16,O=C(O)c1cccc(COc2ccccc2Cl)c1,-1.96%
17,Cc1cc(NC(=O)CN2C(=O)c3cccc4cccc2c34)ccc1Br,-5.23%
18,CC(=O)CCc1c(S)nc2ccccc2c1C,-3.77%
19,Oc1nc(/C=C/c2ccccc2C(F)(F)F)cc(C(F)(F)F)n1,-2.48%
20,Cc1ccc(C(C)C)c(OCC(=O)Nc2cccc3cccnc23)c1,5.15%
21,O=C(O)CCC(=O)NCc1ccc(F)cc1,-6.78%
22,COc1ccccc1NC(=O)C1=C(C)NC(=O)NC1c1cccc(OC)c1OC (stereo not drawn),-0.999%
23,COc1ccc(CCNC(=O)CSc2nc3c(sc4ccccc43)c(=O)n2CCO)cc1OC,4.02%
24,CCOc1ccc(/N=C2\SC(C(=O)Nc3ccc(F)cc3)CC(=O)N2C)cc1 (stereo not drawn),-2.83%
25,COC(=O)c1ccc(-c2nc(-c3ccc(-n4cccc4)cc3)no2)cc1,-8.42%
26,Cc1cc([N+](=O)[O-])ccc1NC(=O)/C=C\C(=O)O,-4.49%

row,SMILES,% Inhibition @ 10 uM
1,CN(C)c1ccc(C2C(C#N)=C(N)Oc3[nH]nc(-c4cccc5ccccc45)c32)cc1 (stereo not drawn),2.46%
2,Cc1cc2c(N)c(C(N)=O)sc2nc1-c1ccc(F)cc1,-1.6%
3,CCOc1ccccc1C(=O)Nc1nc(C)cs1,-8.36%
4,CN(CCC(N)=O)Cc1ccccc1,-3.77%
5,CO/C(O)=C1\C(C)=NC2=C(C(=O)CC(C)(C)C2)C1c1ccc(OCc2ccccc2)c(OC)c1 (stereo not drawn),2.45%
6,CN(C)c1ccc2c(c1)OC(N)=C(C#N)C2c1ccc(F)cc1 (stereo not drawn),2.38%
7,COc1ccccc1NCN1C(=O)S/C(=C\c2cccc(F)c2)C1=O,-1.32%
8,Cc1ccc(NC(=O)CCC(=O)c2ccccc2)cc1,3.86%
9,c1cnc(N2CCN(Cc3ccc4ccccc4c3)CC2)nc1,0.708%
10,CCOC(=O)c1c(N)sc(C(=O)N2CCCC(C(N)=O)C2)c1C (stereo not drawn),-3.09%
11,O=S(=O)(NCc1csc(-c2cccnc2)n1)c1ccc2c(c1)CCCC2,-0.72%
12,CCOC(=O)c1noc2ncnc(NC(C)CC34CC5CC(CC(C5)C3)C4)c12 (stereo not drawn),3.33%
13,O=C(NC1CCCc2ccccc21)c1cc(-c2ccccc2)[nH]n1 (stereo not drawn),5.45%
14,CN(C)CCCN(CCCN(C)C)Cc1ccc(F)c(Br)c1,-2.21%
15,CC(C)CC(C(=O)NCC1CCN(Cc2cccc(Cl)c2)CC1)N1Cc2ccccc2C1=O (stereo not drawn),-1.58%
16,Cc1ccccc1Cn1ccn(Cc2ccccc2)c(=O)c1=O,-7.32%
17,COc1ccc2oc(=O)cc(CN3CCN(C4CCCCC4)CC3)c2c1,3.27%
18,Clc1cccc(CN2CCOCC2)c1,1.62%
19,Cc1cc(NC(=O)Nc2ccc(Cl)cc2)ccc1Br,0.635%
20,O=C(Nc1cccnc1Cl)c1ccc(Oc2ccccc2)cc1,-3.39%
21,O=C(COc1ccc(Cl)cc1Cl)Nc1cccc(Cl)c1Cl,1.55%
22,FC(F)(F)C(Oc1nc(N2CCCCC2)nc(N2CCOCC2)n1)C(F)(F)F,0.00178%
23,COc1cc(OC)cc(C2C(C#N)=C(N)Oc3[nH]nc(C(C)(C)C)c32)c1 (stereo not drawn),1.08%
24,CC1CCCC(NCc2ccc3c(c2)OCO3)C1 (stereo not drawn),-2.02%
25,O=C(Cn1c2c(c(-c3ccccc3Cl)cc1=O)CCC2)NCC1CCCO1 (stereo not drawn),-4.53%
26,Cc1ccc(C(=O)NCC(c2ccco2)N2CCCC2)cc1 (stereo not drawn),17.2%

row,SMILES,% Inhibition @ 10 uM
1,CC1(C)CC(=O)C2=C(C1)N(c1cccnc1Cl)C(N)=C(C#N)C2c1ccc(Br)s1 (stereo not drawn),-2.75%
2,Cc1ccc(S(=O)(=O)Cc2nc(-c3ccc(C(=O)NCc4ccc(F)cc4)cc3)oc2C)cc1,-2.56%
3,COCc1[nH]nc2c1C(c1cc(OC)cc(OC)c1)C(C#N)=C(N)O2 (stereo not drawn),4.11%
4,c1cncc(CN2CN(c3nc4ccccc4s3)CN(c3nc4ccccc4s3)C2)c1,-2.91%
5,Fc1ccc(N2CC(c3ccccc3)C(c3cccs3)=N2)c(F)c1 (stereo not drawn),-1.05%
6,CC1=NCCN1S(=O)(=O)c1cc(Cl)ccc1Cl,7.26%
7,Cc1c(C)n(Cc2ccccc2)c2ccc(C(=O)OCCN(C)C)cc12,-6.83% and 0.605%
8,O=C(NCCCN1CCOCC1)c1ccco1,0.146%
9,S=C1NCN(Cc2ccccc2)CN1,-1.26%
10,Cc1ccc(C(=O)Nc2nc3ccc(S(C)(=O)=O)cc3s2)o1,1.57%
11,CC(C)C1=CCC(C)/C(=C/c2ccc(F)cc2)C1=O (stereo not drawn),1.12%
12,CCOc1ccccc1CNc1nc2nc(C)c(Cl)c(C)n2n1,1%
13,COc1cc(OC)c(/C=C2/SC(=O)N(C(C)C)C2=O)c(OC)c1,0.163%
14,Cc1ccc(-c2onc(C)c2C)cc1S(=O)(=O)NCCC1=CCCCC1,-1.52%
15,C=CCS(=O)(=O)Nc1ccccc1,0.132%
16,CCC(C)NC(=O)C1c2cc(OC)c(OC)cc2C(=O)N2CCCCC12 (stereo not drawn),-1.51%
17,CCOC(=O)N1CCN(c2c(NC(C)CC)c(=O)c2=O)CC1 (stereo not drawn),-1.44%
18,Cc1nc2ccc(C(=O)N3CCN(c4ccccn4)CC3)cc2s1,-1.27%
19,Cc1nn(CC(=O)NCc2ccccn2)c(=O)c2nn(-c3ccccc3)c(C)c12,3.97%
20,NNC(=O)CNc1ccc(Cl)cc1Br,-4.4%
21,N#CCc1ccc(NC(=O)COc2ccc(F)cc2F)cc1,-1.75%
22,CSc1ccc(C2C(C#N)=C(N)Oc3[nH]nc(-c4ccccc4)c32)cc1 (stereo not drawn),-1.06%
23,O=[N+]([O-])c1ccccc1S(=O)(=O)Nc1ccccn1,-2.66%
24,N#CCNC(=O)[C@H](Cc1ccc(Cl)cc1)NC(=O)c1ccccc1,-1.83%
25,CCOC(=O)N1CCN(C(c2ccccn2)c2cc(Cl)c3cccnc3c2O)CC1 (stereo not drawn),40.9%
26,CCCCCC(=O)Nc1sc(C)c(C)c1C#N,0.385%

row,SMILES,% Inhibition @ 10 uM
1,COc1ccc2oc(=O)cc(CN3CCN(Cc4ccc(C)cc4)CC3)c2c1,8.37%
2,Cn1c(C(=O)N2CCCC(C(=O)NCc3ccc4c(c3)OCO4)C2)cc2sccc21 (stereo not drawn),-8.57%
3,C/C(=C\c1ccccc1)CN1CCN(c2ccc(F)cc2)CC1,-1.5%
4,Cn1c(=O)n(C)c2cc(/C=C3/SC(=O)N(Cc4ccc(Cl)cc4)C3=O)ccc21,-6.25%
5,O=S(=O)(c1ccc2oc3ccc(S(=O)(=O)N4CCCC4)cc3c2c1)N1CCCC1,0.528%
6,CC1(C)CC(=O)C(/C=N/CCCC(=O)O)=C(O)C1,3.66%
7,CCOc1ccc(N2C(=O)CC(N(CCc3ccc(S(N)(=O)=O)cc3)C(C)=O)C2=O)cc1 (stereo not drawn),-9.25%
8,Cc1ccc(OCC(=O)Nc2ccc(S(=O)(=O)N3CCCCCC3)cc2)cc1,7.78%
9,CC(C)Cc1c(C#N)c(N)nc(SCC(=O)c2ccc(-c3ccccc3)cc2)c1C#N,16.2%
10,Fc1cc(Br)ccc1-n1ncnc1-c1ccncc1,-0.0953%
11,COc1ccccc1NC(=O)NC1(C(F)(F)F)Oc2ccccc2O1,3.97%
12,CC(=O)C1=C(C)Nc2ncnn2C1c1ccc(Cl)cc1Cl (stereo not drawn),0.408%
13,COc1ccc(S(=O)(=O)NCC(=O)Nc2ccccc2Br)cc1OC,-5.39%
14,CC(=O)NS(=O)(=O)c1ccc(NC(=O)c2cccs2)cc1,2.4%
15,COc1cccc2c1OC(c1cccnc1)N1N=C(c3cc(Cl)ccc3O)CC21 (stereo not drawn),-5.36%
16,Cc1ccc(/C=C/C(O)=C2/C(=O)N(C)C3(C)CC2c2ccccc2O3)cc1 (stereo not drawn),1.5%
17,CN1CCN(C(=O)/C(=C/c2cn(S(=O)(=O)N(C)C)c3ccccc23)NC(=O)c2ccccc2)CC1,1.43%
18,O=C1CCCc2c1nc(-c1ccc(F)cc1)n2O,0.215%
19,Cc1cc(Cl)ccc1OCC(=O)N(Cc1ccccc1)c1ccccn1,-1.35%
20,CCN(CC)S(=O)(=O)c1ccc(-c2csc(Nc3ccccc3OC)n2)cc1,-9.97%
21,Cc1ccc(C2CC(=O)NC3=C2C(=O)CC(C)(C)C3)cc1 (stereo not drawn),-0.668%
22,Cc1nn(C)c2c1c(-c1ccccc1)cc(=O)n2CCOc1ccccc1,5.73%
23,COC1CCCCC(=O)N1S(=O)(=O)c1ccc(C)cc1 (stereo not drawn),-4.35%
24,Cc1cc(C)c(Cn2c3ccccc3c3cnn(CC(=O)N4CCCC4)c(=O)c32)c(C)c1,-11.1%
